Data reported in PubChem BioAssay AID360 (National Center for Advancing Translational Sciences (NCATS), 2006).
The campaign covered roughly 48,000 compounds. About 550 (1.1%) were called active. Another 4% or so got no clear call; they are omitted. No stated cut-off is given here; in the data, active means potency below about 15 µM; inconclusive means mostly about 16 µM to 33 µM; inactive means weaker than that. The list shows a part of the results.

target: Lysosomal acid glucosylceramidase (Homo sapiens) (UniProt P04062); test: Glucocerebrosidase; conditions: purified enzyme, resorufin glucoside fluorescence (screen aimed at inhibitors), 20 min;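 further: the screen sought inhibitors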
Procedure, shortened: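 Compounds titrated against 0.2 nM normal enzyme, 30 uM resorufin beta-D-glucopyranoside substrate, citrate/phosphate buffer with taurocholate and tween-20, pH 5.9. Reaction ran 20 min at room temperature; fluorescence (Ex 548/Em 600) gave AC50.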
Potency means the concentration at half of the fitted maximal effect.

Sequence of UniProt P04062 (P04062 whole entry, looked up): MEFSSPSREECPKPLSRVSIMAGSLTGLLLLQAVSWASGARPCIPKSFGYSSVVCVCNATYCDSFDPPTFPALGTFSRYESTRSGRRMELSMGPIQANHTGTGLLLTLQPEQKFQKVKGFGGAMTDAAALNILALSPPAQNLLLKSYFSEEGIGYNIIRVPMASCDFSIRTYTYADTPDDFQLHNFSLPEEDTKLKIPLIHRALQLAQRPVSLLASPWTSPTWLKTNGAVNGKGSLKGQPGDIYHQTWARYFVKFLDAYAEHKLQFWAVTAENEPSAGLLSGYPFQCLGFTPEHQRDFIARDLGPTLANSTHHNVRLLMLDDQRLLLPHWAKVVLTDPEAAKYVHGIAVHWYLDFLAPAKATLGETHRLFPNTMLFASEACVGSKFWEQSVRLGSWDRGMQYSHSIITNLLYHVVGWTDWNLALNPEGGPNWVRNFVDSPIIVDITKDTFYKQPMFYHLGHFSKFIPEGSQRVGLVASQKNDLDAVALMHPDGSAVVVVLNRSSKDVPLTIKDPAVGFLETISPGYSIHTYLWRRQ

Potency, inactive:
O=C(CSc1nnc(-c2ccccc2)o1)N1CCOCC1 > 76.9 µM
Cc1ccccc1OCC(=O)N(Cc1ccc(N(C)C)cc1)C1CCS(=O)(=O)C1 (stereo not given) > 76.9 µM
COc1cccc(-c2noc(CCC(=O)NC3CCCCC3)n2)c1 > 76.9 µM
CCCC(=O)Nc1ccccc1-c1nnn(CC(=O)Nc2ccc(OC)cc2)n1 > 76.9 µM
Cc1ccc(CCN2CC(C(=O)NCCN3CCCCCC3)CC2=O)cc1 (stereo not given) > 76.9 µM
COc1ccc(-c2cc(C(F)F)n3ncc(C(=O)N4CCSCC4)c3n2)cc1 > 76.9 µM
COc1ccc(C2N(c3ccccn3)C(=O)C3CCCN32)c(OC)c1 (stereo not given) > 76.9 µM
Cc1cnc(C(=O)OCC(=O)N2CCN(C(=O)c3ccco3)CC2)cn1 > 76.9 µM
CCc1c(C)nc2ncnn2c1Nc1ccc(C#N)c(Cl)c1 > 76.9 µM
Cc1c(C(=O)NC(C)C)oc2c1-c1[nH]ncc1CC2 > 76.9 µM
Cc1cccc(Nc2ncc3c(n2)CC(C)CC3=O)c1 (stereo not given) > 76.9 µM
COc1ccc(CCNC(=O)C2=COCCO2)cc1 > 76.9 µM
CCCCNC(=O)c1ccccc1NC(=O)c1ccccc1N(C)S(C)(=O)=O > 76.9 µM
CCOc1ccc(NC(=O)CSc2nnnn2CC(=O)O)cc1 > 76.9 µM
COc1ccc(CC(=O)N2CCNC2=O)cc1 > 76.9 µM
O=C(COc1cc(Cl)c(Cl)cc1Cl)Nn1cnnc1 > 76.9 µM
Cc1ccc(S(=O)(=O)N2CCCC2C(=O)Nc2cc(C)on2)cc1 (stereo not given) > 76.9 µM
Cc1ccc(-n2nc(C)c3c2OC(N)=C(C#N)C3c2ccncc2)cc1 (stereo not given) > 76.9 µM
C/C=C(\C)c1nnc(NC(=O)C(C)C)s1 > 76.9 µM
Cn1c(=O)c2c(nc(NCCCO)n2CCc2ccccc2)n(C)c1=O > 76.9 µM
CCC(C)[C@H](NC(=O)Nc1ccc(C(C)=O)cc1)C(=O)OC (stereo not given in full) > 76.9 µM
Cc1ccc(OCCNS(=O)(=O)c2cccs2)cc1 > 76.9 µM
Cc1cc2oc(C(=O)Nc3c(C)n(C)n(-c4ccccc4)c3=O)c(C)c2cc1C > 76.9 µM
O=S(=O)(c1cccc(C(F)(F)F)c1)N1CCN(c2nnnn2-c2ccccc2)CC1 > 76.9 µM
COc1ccccc1NC(=O)NC(N)=O > 76.9 µM
CCCOc1ccc(N2C(=O)CC(N(O)c3ccccc3)C2=O)cc1 (stereo not given) > 76.9 µM
CC(C)Sc1ncnc2c1oc1ccccc12 > 76.9 µM
COCCOC(=O)C1=C(C)N=C2SCCC(=O)N2C1c1cccc(Br)c1 (stereo not given) > 76.9 µM
Cc1ccc(C2C(C#N)=C(N)SC(N)=C2C#N)cc1 > 76.9 µM
COC(=O)CSc1nnc(C2COc3ccccc3O2)n1-c1ccccc1 (stereo not given) > 76.9 µM
O=C(CN1CCN(c2ccc(F)cc2)CC1)Nc1nnc(-c2ccccc2)s1 > 76.9 µM
COCCCn1c(-c2ccsc2)nc2c1c(=O)[nH]c(=O)n2Cc1ccccc1 > 76.9 µM
Cc1cc(=O)n2nc(N3CCC(C(=O)N4CCN(C)CC4)CC3)sc2n1 > 76.9 µM
Cc1cccc(NC(=O)c2cc(-c3ccco3)nc3ccccc23)n1 > 76.9 µM
Cc1cc(C)nc(SC2CCCCC2O)n1 (stereo not given) > 76.9 µM
O=c1c2ccccc2c(/C=N/n2cnnc2)c(O)n1-c1ccccc1 > 76.9 µM
COc1cccc(C(c2nnnn2C(C)(C)C)N2CCN(C3CCCCC3)CC2)c1OC (stereo not given) > 76.9 µM
COCCN1Cc2cccc(C(=O)Nc3cccnc3)c2C1=O > 76.9 µM
O=S(=O)(c1ccc(Nc2ccc3c(c2)OCO3)nc1)N1CCOCC1 > 76.9 µM
O=C(CN1C(=O)NC2(CCCc3ccccc32)C1=O)N1CCN(C(=O)c2ccco2)CC1 (stereo not given) > 76.9 µM
COc1ccc(NC(=O)CSc2nnc(CN3CCOCC3)n2-c2ccccc2)cc1Cl > 76.9 µM
CSCCC(Nc1nc2ccccc2s1)C(=O)O (stereo not given) > 76.9 µM
CCc1nc(C)c(-c2ccccc2)c(=O)[nH]1 > 76.9 µM
CC1CCCN(CC(O)COc2ccc(Cl)cc2)C1 (stereo not given) > 76.9 µM
O=C(O)CNC1=NCCCCC1 > 76.9 µM
CC(=O)NCC(=O)N(Cc1ccco1)C1(C(=O)NC2CCCCC2)CCCCC1 > 76.9 µM
CCOC(=O)c1ccc(CNC(=O)C(Cc2c[nH]c3ccccc23)NC(C)=O)o1 (stereo not given) > 76.9 µM
CC(NC(=O)Cc1cccs1)C(c1cccs1)N1CCOCC1 (stereo not given) > 76.9 µM
COc1ccc2[nH]c(=O)c(CN(Cc3cccs3)Cc3nnnn3C(C)(C)C)cc2c1
CCCn1c(SCC(=O)N2CCCc3ccccc32)nnc1-c1ccco1 > 76.9 µM
CCOc1cc(-c2nc(-c3ccc(C)nc3OCC)no2)cc(OCC)c1OCC > 76.9 µM
CCN(CC)C(=O)CN1CCN(c2ncccn2)CC1 > 76.9 µM
COc1ccc(-c2[nH]nc3c2C(c2ccncc2)C(C#N)=C(N)O3)cc1 (stereo not given) > 76.9 µM
CCN(CC)CCSc1nc(O)c(-c2ccccc2)c(=O)[nH]1 > 76.9 µM
Cc1nnc(NC2=NCCCCC2)o1 > 76.9 µM
COc1ccccc1Nc1nc(N)nc(CSc2nncn2C)n1 > 76.9 µM
Cc1ccc(N(Cc2cc(=O)[nH]c3ccccc23)C(=O)c2ccco2)cc1 > 76.9 µM
C=C(C)c1cccc(C(C)(C)NC(=O)Nn2cnnc2)c1 > 76.9 µM
Cc1noc(C)c1COC(=O)CN(C)S(=O)(=O)c1ccc(Cl)cc1 > 76.9 µM
COc1ccc(-c2nnnn2CCc2ccccc2)cc1 > 76.9 µM
